Experimental data published in the supplement of paper PMC10441789.
The list shows a part of the results. Antibody binding of pooled human sera (four to six donors per pool; dilution not stated) to peptides of the Trypanosoma cruzi antigen TSSA on microarrays. Quantile-normalised fluorescence in arbitrary units, mean of duplicate arrays; higher = more binding. No active / inactive call. The uninfected pools are read here as the healthy donors of the same country. The strongest signals lie near the top of the scale (about 60,000).

System: pooled sera of uninfected people, Brazil
Assay: antibody binding signal (normalised fluorescence) (arbitrary fluorescence units); higher = stronger serum antibody binding to peptide
Experimental: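 Microarray of overlapping 15-residue peptides of the four Trypanosoma cruzi TSSA reference variants and 8- to 13-residue peptides of TSSAII 24-62, probed with one serum pool per country.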

Sequence | antibody binding signal
STPPSGTENKPA | 697
CTTANGGSTSSTPPG | 937
TPPSGTENKP | 463
NKPATGEAP | 319
NKPATGEAPS | 442
GSTSSTPPSGTEN | 236
GTDKKTAAGEAPSPS | 204
ANGGSTSSTPPS | 297
TANGGSTSSTPPSGT | 293
GEAPSQPGAS | 218
AAGGTPSPSGASSGE | 142
TANGGSTS | 248
TPPSGTENKPAT | 576
GTENKPAT | 271
GGSTSSTPP | 163
TGEAPSQPGAS | 180
ATGEAPSQPGASSGE | 213
NKPATGEAPSQPGAS | 770
EAPSQPGASSGE | 159
GGSTSSTPPS | 241

Sequence | antibody binding signal
QPGASSGE | 141
GEAPSQPGASSGEAE | 97.2
TDKKTAAGGTPSPSG | 1370
PGASSGEAEASSNKN | 148
EAPSQPGASSGEA | 139
PPSGTEKKAAAGEAP | 208
ANGGSTSS | 219
TSSTPPSG | 270
APSQPGASS | 231
SQPGASSGE | 168
TGEAPSQPGASS | 151
GASSGEAEA | 138
GGSTSSTP | 134
SQPGASSGEAEASSN | 119
PPSGTENKPATGEAP | 785
PSGTENKPA | 744
PSQPGASSGEAE | 108
GTDKKTAAGGTPSPS | 661
TPPSGTEKKAAAGEA | 392
TTANGGSTSSTPPGT | 243
